From PubChem BioAssay (NCI)
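Exposure lasted 48 hours, with cells grown in 96-well plates and compounds tested at five concentrations. GI50 marks 50% less growth.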 For part of its entries the source gives two or more results. They are shown here; other results are not. The source may hold further records. The tests behind the records often covered other concentration ranges, not given here; a value can be the end of its range.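 TGI: total growth inhibition.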

Assays:
Test in all cases: NCI tumour cell line growth inhibition, 48 h
[1] = test system: A498 renal
[2] = test system: A549 NSCLC
[3] = test system: CCRF-CEM leukemia
[4] = test system: COLO 205 colon
[5] = test system: DLD-1 colon
[6] = test system: DMS 114 small cell lung
[7] = test system: DMS 273 small cell lung
[8] = test system: EKVX NSCLC
[9] = test system: HCC-2998 colon
[10] = test system: HCT-15 colon
[11] = test system: HL-60(TB) leukemia
[12] = test system: HOP-62 NSCLC
[13] = test system: HOP-92 NSCLC
[14] = test system: HT29 colon
[15] = test system: IGROV1 ovarian
[16] = test system: K-562 leukemia
[17] = test system: KM12 colon
[18] = test system: KM20L2 colon
[19] = test system: LOX IMVI melanoma
[20] = test system: M19-MEL melanoma
[21] = test system: MCF7 breast
[22] = test system: NCI-H23 lung
[23] = test system: NCI-H460 lung
[24] = test system: NCI-H522 lung
[25] = test system: NCI/ADR-RES ovarian
[26] = test system: OVCAR-3 ovarian
[27] = test system: OVCAR-4 ovarian
[28] = test system: OVCAR-5 ovarian
[29] = test system: OVCAR-8 ovarian
[30] = test system: RPMI-8226 leukemia
[31] = test system: RXF 393 renal
[32] = test system: SF-268 CNS
[33] = test system: SF-295 CNS
[34] = test system: SK-MEL-2 melanoma
[35] = test system: SK-MEL-28 melanoma
[36] = test system: SK-MEL-5 melanoma
[37] = test system: SK-OV-3 ovarian
[38] = test system: SN12C renal
[39] = test system: SN12K1 renal
[40] = test system: SNB-75 CNS
[41] = test system: SNB-78 CNS
[42] = test system: SW-620 colon
[43] = test system: U251 CNS
[44] = test system: UACC-257 melanoma
[45] = test system: UACC-62 melanoma
[46] = test system: XF 498 CNS
[47] = test system: MDA-MB-231 breast
[48] = test system: DU-145 prostate
[49] = test system: HCT-116 colon
[50] = test system: HS 578T breast
[51] = test system: M14 melanoma
[52] = test system: MOLT-4 leukemia
[53] = test system: SR leukemia
[54] = test system: CAKI-1 renal

C[C@@H]1O[C@@H](O[C@H]2CC[C@]3(C=O)[C@H]4CC[C@]5(C)[C@@H](c6ccc(=O)oc6)CC[C@]5(O)[C@@H]4CC[C@]3(O)C2)[C@H](O)[C@H](O)[C@H]1O[C@@H]1O[C@H](CO)[C@@H](O)[C@H](O)[C@H]1O
GI50 [1]: 0.0177 nM [1 test] and 37.5 nM [mean of 4 tests] | TGI [1]: 0.269 nM, 141 nM, 48 nM | TGI [2]: 0.000975 nM, 17.6 nM [1 test] and 14.3 nM [mean of 6 tests] | TGI [3]: 0.0568 nM, 37.4 nM, 38 nM | TGI [4]: 3.75 nM, 68.1 nM, 65.9 nM | GI50 [5]: 0.000853 nM [1 test] and 11.9 nM [mean of 5 tests] | TGI [5]: 0.0992 nM [1 test] and 40.7 nM [mean of 5 tests] | TGI [6]: 0.461 nM and 13.3 nM | GI50 [7]: 0.000377 nM [1 test] and 37.5 nM [mean of 4 tests] | TGI [7]: 0.245 nM, 25.6 nM, 39.7 nM | TGI [8]: 0.00865 nM, 29.3 nM, 31.5 nM | TGI [9]: 0.628, 135, 47.4, 52.4 nM | TGI [10]: 0.697, 50.3, 68.3, 60.7 nM | TGI [11]: 0.00108 nM, 18.2 nM, 67.4 nM | TGI [12]: 0.375, 30, 21.4, 37.6 nM | TGI [13]: 0.494, 128, 79.8, 52.3 nM | TGI [14]: 3.75, 78.3, 61.5, 675 nM | GI50 [15]: 0.00603 nM [1 test] and 37.5 nM [mean of 5 tests] | TGI [15]: 0.375 nM, 142 nM, 462 nM | GI50 [16]: 0.00149 nM [1 test] and 37.5 nM [mean of 3 tests] | TGI [16]: 0.635 nM, 136 nM, 66.7 nM | TGI [17]: 0.456, 107, 133, 65.7 nM | GI50 [18]: 0.00147 nM [1 test] and 37.5 nM [mean of 5 tests] | TGI [18]: 3.75 nM, 86.4 nM, 48.6 nM | TGI [19]: 0.28, 45.7, 30.9, 242 nM | GI50 [20]: 0.00752 nM [1 test] and 32.8 nM [mean of 5 tests] | TGI [20]: 3.75 nM, 120 nM, 47.4 nM | TGI [21]: 0.982, 94, 92.1, 69.7 nM | TGI [22]: 0.0009 nM and 14.2 nM | TGI [23]: 0.0387 nM, 29.5 nM, 24.2 nM | TGI [24]: 0.0235 nM, 11.2 nM, 12 nM | TGI [25]: 0.00269, 56.6, 43.7, 47.5 nM | TGI [26]: 0.00157, 14.7, 55.8, 37.6 nM | TGI [27]: 0.00115 nM, 21 nM, 16.8 nM | TGI [28]: 1.18, 23.3, 78, 86.6 nM | TGI [29]: 0.765, 60.7, 40, 40.3 nM | TGI [30]: 0.208, 88.6, 71.9, 68.1 nM | TGI [31]: 0.000658 nM, 31.8 nM [1 test] and 37.2 nM [mean of 3 tests] | TGI [32]: 0.000989, 26.6, 20.6, 37.6 nM | TGI [33]: 0.337, 50.2, 25.3, 42 nM | TGI [34]: 0.312, 49.2, 46.8, 49.9 nM | TGI [35]: 3.75, 165, 87.5, 94.8 nM | TGI [36]: 0.138 nM, 25.8 nM, 55.8 nM | GI50 [37]: 0.0113 nM [1 test] and 37.5 nM [mean of 5 tests] | TGI [37]: 2.01 nM, 55.3 nM, 37.7 nM | TGI [38]: 3.75, 51.7, 31.4, 63.1 nM | GI50 [39]: 0.00231 nM [1 test] and 22.8 nM [mean of 5 tests] | TGI [39]: 0.133 nM, 71.6 nM, 39.2 nM | TGI [40]: 0.74, 60.8, 78.4, 47.7 nM | GI50 [41]: < 0.000375 nM [1 test] and 12.4 nM [mean of 5 tests] | TGI [41]: 2.06 nM, 189 nM, 47.9 nM | TGI [42]: 3.75, 83.6, 84.7, 37.8 nM | TGI [43]: 3.75, 78.8, 66.4, 43.4 nM | TGI [44]: 1.37, 58.2, 42.4, 667 nM | TGI [45]: 3.75, 63.8, 41, 39 nM | GI50 [46]: 0.0215 nM [1 test] and 6.38 nM [mean of 4 tests] | TGI [46]: 0.121 nM, 11.5 nM, 42.6 nM

CC1=C2C(=CC(C)(C)[C@@H]2O)C(=O)[C@](C)(O)C12CC2
TGI [3]: 131 nM and 2.57 µM | TGI [10]: 29.9 nM and 1.09 µM | TGI [47]: 20.5 nM [1 test] and 368 nM [mean of 4 tests] | GI50 [30]: 1.51 µM [1 test] and 71.4 nM [mean of 4 tests] | TGI [30]: 6.8 µM [1 test] and 647 nM [mean of 4 tests] | TGI [43]: 124 nM and 10.4 µM

C=C1CC2CC[C@@]34CC5O[C@@H]6C(O[C@H]7CC[C@H](CC(=O)OC8C(C)C9OC%10C[C@]%11(C[C@@H]%12O[C@]%13(CC(C)[C@@H]%14O[C@H](C(O)CC(O)CO)C[C@@H]%14O%13)CC(C)[C@@H]%12O%11)OC%10CC9O[C@H]8C[C@H]8OC(CC[C@@H]1O2)C[C@@H](C)C8=C)OC7[C@@H]6O3)[C@H]5O4 (stereo partly drawn)
TGI [3]: 9.24 nM, 2.55 µM, 1.6 µM | TGI [4]: 5.14 nM, 2.21 nM, 0.215 nM, 1.26 µM | TGI [48]: 4.75 nM, 126 nM, 15.3 µM | TGI [9]: 8.12 nM, 3.65 nM, 11.7 nM, 6.5 µM | TGI [49]: 12 nM, 3.09 nM, 1.44 µM [1 test] and 735 nM [mean of 4 tests] | TGI [10]: 56.4 nM, 2.55 µM, 12.5 µM | TGI [11]: 0.842 nM and 2.55 µM | TGI [12]: 9.66 nM and 2.55 µM | TGI [13]: 4.67 nM and 2.55 µM | TGI [50]: 2.85 µM [1 test] and 46.4 nM [mean of 3 tests] | TGI [14]: 6.78 nM, 2.44 nM, 36.8 nM, 1.56 µM | TGI [15]: 21.4 nM, 2.55 µM, 1.12 µM | TGI [16]: 9.69 nM, 2.55 µM, 8.62 µM | TGI [17]: 6.33, 11.9, 26.8, 631 nM | TGI [19]: 12.5 nM, 629 nM, 1.49 µM [1 test] and 570 nM [mean of 4 tests] | TGI [51]: 9.98 nM and 1.96 µM | TGI [47]: 13.5 nM and 159 nM | TGI [52]: 70.1 nM and 1.29 µM | TGI [22]: 3.25 nM, 46.4 nM, 2.84 µM | TGI [23]: 4.18 nM, 1.2 µM [1 test] and 192 nM [mean of 4 tests] | TGI [25]: 28 nM, 94.3 nM, 8.08 nM, > 100 µM | TGI [26]: 1.74 nM, 0.597 nM, 84.6 nM, 3.59 µM | TGI [29]: 11 nM, 43.3 nM, 2.09 µM [1 test] and 43.1 nM [mean of 4 tests] | TGI [30]: 13.8 nM, 2.55 µM, 1.88 µM | TGI [31]: 5.54 nM and 1.91 µM | TGI [33]: 3.16 nM, 2 nM, 35.4 nM, 1.79 µM | TGI [36]: 5.07 nM, 0.619 nM, 27.4 nM | TGI [37]: 7.56 nM, 19.3 nM, 579 nM, 987 nM, 2.14 µM | TGI [40]: 3.85 nM and 1.43 µM | TGI [53]: 9.19 nM and 3.57 µM | TGI [43]: 27.1 nM, 1.05 µM [1 test] and 581 nM [mean of 4 tests] | TGI [45]: 0.668 nM, 2.55 µM, 1.87 µM

CC(C)(O)/C=C/C(=O)[C@](C)(O)[C@H]1[C@H](O)C[C@@]2(C)[C@@H]3CC=C4[C@@H](C[C@H](O)C(=O)C4(C)C)[C@]3(C)C(=O)C[C@]12C
TGI [54]: 316 nM and 5.01 µM | TGI [4]: 436 nM and 27.4 µM | TGI [49]: 706 nM and 8.81 µM | TGI [10]: 966 nM [mean of 3 tests] and 27.7 µM [mean of 4 tests] | TGI [18]: 435 nM and 20.8 µM | TGI [27]: 661 nM [mean of 3 tests] and 11.5 µM [mean of 4 tests] | TGI [28]: 953 nM and 22.5 µM | TGI [40]: 176 nM and 1.84 µM
